Assay results reported in PubChem BioAssay AID1347417 (National Center for Advancing Translational Sciences (NCATS), 2020).
Among all 120,000 compounds or so, about 5,300 (4.4%) were called active. Inconclusive results, whose numbers are uncertain, are shown with a selection of clear calls. Calls follow the shape of the dose curve; as a rule, active = well fitted inhibition curve with a large enough effect; inconclusive = small, poorly fitted or top-dose-only effect; inactive = no such curve, though single readings can be large or run the other way. Potencies of inconclusive entries are doubtful fits and often do not repeat.

Assay: qHTS Primary assay for Inhibitors of Plasmodium falciparum Dd2 growth in vitro; also: nearly all actives have a fitted effect of over 65% in size
Details: P. falciparum Dd2 growth, SYBR Green, 72 h; series mostly up to 28.9 µM
Outline: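 Readout: SYBR Green fluorescence, 485 nm excitation, 535 nm emission, after ~16 h lysis at 37C. Before that, Dd2-infected red cells (2.5% hematocrit) grew 72 h with compound, 29 uM top final concentration.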
Potency is read from the fitted curve at half-maximal effect; tags tell the direction and shape of the fitted curve.

Row | Compound | Potency
1 | Cn1c2c(c3cc(F)ccc31)CN(C(=O)Nc1cccc(Cl)c1)CC2 | inconclusive: 2.51 µM [inhibitor, partial curve, poor fit]
2 | CCOc1cc(C)c(CN2CCCC(O)(CN(C)C)C2)cc1C(C)C (stereo not given) | active: 2.82 µM
3 | COCc1c(C(=O)N[C@@H]2CN(Cc3cccnc3)C[C@H]2CN(C)C)noc1C | inactive
4 | CC1CCN(c2cc3c(cc2F)c(=O)c(S(=O)(=O)c2cccc(Cl)c2)cn3Cc2ccccc2)CC1 | inconclusive: 17.8 µM [inhibitor, single point]
5 | CCN(C)C(=O)CCc1c(C)nn(-c2cccc(C)c2)c1Oc1ccccc1 | inactive
6 | O=C(NCC[C@@H]1C[C@@H]2C=C[C@H]1C2)c1cn(Cc2ccccc2Cl)nn1 | inactive
7 | COc1ccc(-c2nc(C(C)C)nc3c2CCN(C(=O)c2ccccc2F)CC3)cc1 | inconclusive: 11.2 µM [inhibitor, single point]
8 | CCOc1cccc(CNC(=O)c2c(OCC(C)C)cc(=O)n3c2CCCCC3)c1 | inconclusive: 17.8 µM [inhibitor, single point]
9 | CCC(c1cccs1)N1C(=O)[C@H]2CN(S(=O)(=O)c3ccccc3C)C[C@H]2C1=O (stereo not given in full) | inconclusive: 15.8 µM [inhibitor, single point]
10 | Oc1c(C(c2ccccc2Cl)N2CCN(Cc3ccccc3)CC2)sc2nc(-c3ccco3)nn12 (stereo not given) | inconclusive: 2.24 µM [inhibitor, partial curve, poor fit]
11 | Cc1ccc(NC(=O)Cn2cc3c(n2)CCCC3)c(C)c1 | inactive
12 | Cc1ccc(NC(=O)Cn2c(N3CCCCC3)nc(C)c(C)c2=O)cc1Cl | inactive
13 | O=C(NC1CCCCC1)c1ccc(CSc2nc3ccncc3n2Cc2ccccc2F)cc1 | inconclusive: 12.6 µM [inhibitor, single point]
14 | CCOc1cc(=O)n2c(c1C(=O)N1CCN(C3CCCCC3)CC1)CCCCC2 | inactive
15 | CCn1cc(S(=O)(=O)N2CCC3(CC2)CC(OC)CCO3)cn1 (stereo not given) | inactive
16 | CNCC(=O)N1C[C@@H](C(=O)O)[C@H](c2ccccc2)C1 | inconclusive: 0.0708 µM [inhibitor, full curve, poor fit]
17 | CC(C)Oc1ccc(CNC(=O)C2CCN(C(=O)N3CC(C)Oc4ccccc43)CC2)cc1 (stereo not given) | inconclusive: 17.8 µM [inhibitor, single point]
18 | COC1CCC12CCN(C(=O)c1cccn1C)CC2 (stereo not given) | inactive
19 | C=CCN(Cc1cnc(-c2cccc(C)c2)nc1)Cc1ccccn1 | inactive
20 | COc1cccc(CNC(=O)[C@@H]2C[C@@H](O)CN2C2CCN(C(=O)c3nccn3C)CC2)c1 | inactive
21 | COc1cccc(CC(=O)N2CCCC3(C2)NC(=O)N(Cc2ccc(C)cc2)C3=O)c1 (stereo not given) | inactive
22 | CC(C)NC(=O)C1CCC(Cn2c(=O)c3sccc3n(CC(=O)Nc3ccccc3)c2=O)CC1 (stereo not given) | inconclusive: 17.8 µM [inhibitor, single point]
23 | O=C([C@@H]1C[C@H](Oc2ccccc2)CN1S(=O)(=O)c1cccs1)N1CCOCC1 | inconclusive: 11.2 µM [inhibitor, single point]

Row | Compound | Potency
24 | CCOC(=O)c1c(C)n(-c2ccccc2)c2ccc(OC(=O)c3cccc(Cl)c3)cc12 | inconclusive: 10 µM [inhibitor, partial curve, poor fit]
25 | CC(C)N1CCC(CC(=O)N2CCn3nc(Cc4ccccc4)cc3C2)CC1 | active: 10 µM
26 | Cc1nc(N2CCCC2)c2c(C(=O)Nc3ccc(Br)cc3F)c(C)oc2n1 | inconclusive: 15.8 µM [inhibitor, single point]
27 | CNC(=O)C(C)(C)N1CCC[C@H]1C(=O)NCCc1ccccc1 | inactive
28 | COc1ccc([C@@H]2CN(c3nccc(C)n3)[C@@H]3C4CCN(CC4)[C@@H]32)cc1 | inconclusive: 10 µM [inhibitor, partial curve, poor fit]
29 | CC(C)N1C[C@H](O)C[C@H]1c1nnc2n1CCN(C(=O)CCc1ccccc1)CC2 | inconclusive: 8.91 µM [inhibitor, single point]
30 | CC(c1ccon1)N(C)C(=O)c1cc(CN2CCC(Cc3ccccc3)CC2)on1 (stereo not given) | inconclusive: 10 µM [inhibitor, partial curve, poor fit]
31 | O=C(CCn1ccn2nc3c(c2c1=O)CCCC3)Nc1ccccc1F | inactive
32 | CCOC(=O)C1CCCN(C(=O)c2ccc3c(c2)N(Cc2ccc(Cl)cc2)C(=O)c2ccccc2S3=O)C1 (stereo not given) | active: 11.2 µM
33 | COc1cccc(NC(=O)Nc2ccc3nc(N4CCN(C)CC4)cc(C)c3c2)c1 | active: 2.51 µM
34 | CC1(C)C(=O)N(CC2CCOCC2)[C@H]2CN(CCCc3ccccc3)C[C@@H]2[S+]1(=O)[O-] | inconclusive: 0.891 µM [inhibitor, full curve]
35 | O=C(c1cc(Cl)ccc1F)N1CCC(Cc2nc(-c3ccc(F)cc3)no2)CC1 | inconclusive: 10 µM [inhibitor, single point]
36 | COCCn1cnc2ccc(OCC3CC3)nc2c1=O | inactive
37 | COc1ccc(CN2Cc3cc(NC(=O)c4ccc(F)cc4F)ccc3OC(C)C2=O)c(OC)c1 (stereo not given) | inconclusive: 1 µM [inhibitor, single point]
38 | COc1ccc(NC(=O)C2CCN(S(=O)(=O)c3cc(-c4noc(C)n4)ccc3C)CC2)cc1 | active: 6.31 µM
39 | Cc1noc2c(-c3cccc(CO)c3)cc(-c3ccc(F)cc3)nc12 | inactive
40 | Cc1csc(Nc2ccc3ncn(C)c(=O)c3n2)n1 | inconclusive: 39.8 µM [inhibitor, single point]
41 | CCN1c2cc(C(=O)Nc3ccc(OC)c(OC)c3)ccc2C(=O)N2CCCCCC21 (stereo not given) | inactive
42 | Cc1ccc(CNC(=O)N2CCCN(C)c3ccccc32)cc1 | inactive
43 | O=C1C(N2CCN(S(=O)(=O)c3cccc(F)c3)CC2)CCN1Cc1cccnc1 (stereo not given) | inactive
44 | Cc1cc(N2CCCCC2)nc2ccc(NC(=O)/C=C/c3ccc(OCCC(C)C)cc3)cc12 | inconclusive: 7.94 µM [inhibitor, partial curve, poor fit]
45 | CCc1nc2c(c(-c3ccc(O)cc3)n1)CCN(Cc1ccccc1OC)CC2 | inconclusive: 1.41 µM [inhibitor, partial curve, poor fit]
